This note sets out measurements from paper PMC3846719.

Amino acid sequences for entries named in this document (tags omitted). Residues count along the entry.
UniProt P27801: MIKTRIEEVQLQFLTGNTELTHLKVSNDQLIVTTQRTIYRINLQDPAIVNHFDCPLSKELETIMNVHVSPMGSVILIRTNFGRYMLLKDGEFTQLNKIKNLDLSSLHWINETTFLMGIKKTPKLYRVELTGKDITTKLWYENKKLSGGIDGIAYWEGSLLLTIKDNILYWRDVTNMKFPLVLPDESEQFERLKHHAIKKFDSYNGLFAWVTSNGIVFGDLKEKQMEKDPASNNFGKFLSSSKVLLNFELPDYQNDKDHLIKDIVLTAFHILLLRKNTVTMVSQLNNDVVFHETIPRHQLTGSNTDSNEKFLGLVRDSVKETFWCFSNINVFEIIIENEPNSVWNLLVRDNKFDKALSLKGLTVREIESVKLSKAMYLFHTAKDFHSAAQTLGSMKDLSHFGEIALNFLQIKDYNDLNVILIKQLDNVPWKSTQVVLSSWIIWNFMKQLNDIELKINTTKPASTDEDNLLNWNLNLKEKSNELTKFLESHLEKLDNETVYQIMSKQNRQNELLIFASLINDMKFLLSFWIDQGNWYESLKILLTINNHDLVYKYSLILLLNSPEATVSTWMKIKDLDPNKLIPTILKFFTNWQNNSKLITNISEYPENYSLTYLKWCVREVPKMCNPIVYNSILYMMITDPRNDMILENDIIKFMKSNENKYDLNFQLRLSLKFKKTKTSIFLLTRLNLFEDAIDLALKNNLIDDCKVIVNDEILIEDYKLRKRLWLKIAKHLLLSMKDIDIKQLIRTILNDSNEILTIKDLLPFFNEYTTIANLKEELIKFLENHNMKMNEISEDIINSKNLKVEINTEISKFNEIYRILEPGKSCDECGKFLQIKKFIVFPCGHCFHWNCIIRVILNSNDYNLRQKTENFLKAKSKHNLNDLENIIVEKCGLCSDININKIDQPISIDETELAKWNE
UniProt P12868, residues 737-1029: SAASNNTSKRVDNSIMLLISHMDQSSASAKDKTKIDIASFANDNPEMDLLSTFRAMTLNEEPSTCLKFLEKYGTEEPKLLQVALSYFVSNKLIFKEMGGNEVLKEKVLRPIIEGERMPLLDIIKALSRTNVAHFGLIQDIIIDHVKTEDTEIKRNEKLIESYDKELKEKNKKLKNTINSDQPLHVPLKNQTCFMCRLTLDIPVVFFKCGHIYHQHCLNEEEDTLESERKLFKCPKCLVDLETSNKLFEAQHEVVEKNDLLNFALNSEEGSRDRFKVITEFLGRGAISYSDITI

One assay concerns the target Vps18 (S. cerevisiae) (UniProt P27801). In words: pull-down; fragments of subunits from linear PCR templates co-translated in LTE with single EGFP-tagged bait subunits; precipitated on the anti-GFP matrix; SDS-PAGE, fluorescence scan.
Another assay deals with T1, Vps3 (S. cerevisiae) (UniProt P23643).
T1 sequence (chain, BODIPY-labelled lysines (BODIPY-Lys-tRNA in the translation)): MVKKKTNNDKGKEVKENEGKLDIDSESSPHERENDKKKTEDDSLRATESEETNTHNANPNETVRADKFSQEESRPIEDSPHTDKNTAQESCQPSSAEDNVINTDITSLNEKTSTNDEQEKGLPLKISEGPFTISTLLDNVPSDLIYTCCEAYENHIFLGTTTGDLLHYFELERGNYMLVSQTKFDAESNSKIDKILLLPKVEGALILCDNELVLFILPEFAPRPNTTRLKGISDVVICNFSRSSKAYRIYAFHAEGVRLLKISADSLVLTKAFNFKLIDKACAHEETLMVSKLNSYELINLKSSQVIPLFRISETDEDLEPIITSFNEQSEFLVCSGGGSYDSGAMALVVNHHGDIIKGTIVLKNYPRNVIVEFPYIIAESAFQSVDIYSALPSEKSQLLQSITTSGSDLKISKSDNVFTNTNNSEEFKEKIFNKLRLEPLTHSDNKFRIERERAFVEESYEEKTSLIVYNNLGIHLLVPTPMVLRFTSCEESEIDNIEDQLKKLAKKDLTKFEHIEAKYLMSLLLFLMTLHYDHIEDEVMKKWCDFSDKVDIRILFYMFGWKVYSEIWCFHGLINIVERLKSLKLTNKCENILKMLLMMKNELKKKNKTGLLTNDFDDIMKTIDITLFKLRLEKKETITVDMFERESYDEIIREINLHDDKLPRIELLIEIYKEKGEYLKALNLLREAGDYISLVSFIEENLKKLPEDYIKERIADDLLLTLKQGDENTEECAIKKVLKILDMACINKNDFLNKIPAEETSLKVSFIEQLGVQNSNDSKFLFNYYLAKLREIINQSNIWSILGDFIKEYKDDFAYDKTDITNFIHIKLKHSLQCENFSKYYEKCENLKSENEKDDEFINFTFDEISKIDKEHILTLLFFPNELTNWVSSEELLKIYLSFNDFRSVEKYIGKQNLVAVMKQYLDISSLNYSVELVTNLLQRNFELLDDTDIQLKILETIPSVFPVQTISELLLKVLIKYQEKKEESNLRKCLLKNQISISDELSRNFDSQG
Described as above.

In another assay the target is Vps39 (S. cerevisiae) (UniProt Q07468). Described as above.
For assay [1], the target named is T2, 6His-GFP-Vps41 (S. cerevisiae), P38959.
T2 chain: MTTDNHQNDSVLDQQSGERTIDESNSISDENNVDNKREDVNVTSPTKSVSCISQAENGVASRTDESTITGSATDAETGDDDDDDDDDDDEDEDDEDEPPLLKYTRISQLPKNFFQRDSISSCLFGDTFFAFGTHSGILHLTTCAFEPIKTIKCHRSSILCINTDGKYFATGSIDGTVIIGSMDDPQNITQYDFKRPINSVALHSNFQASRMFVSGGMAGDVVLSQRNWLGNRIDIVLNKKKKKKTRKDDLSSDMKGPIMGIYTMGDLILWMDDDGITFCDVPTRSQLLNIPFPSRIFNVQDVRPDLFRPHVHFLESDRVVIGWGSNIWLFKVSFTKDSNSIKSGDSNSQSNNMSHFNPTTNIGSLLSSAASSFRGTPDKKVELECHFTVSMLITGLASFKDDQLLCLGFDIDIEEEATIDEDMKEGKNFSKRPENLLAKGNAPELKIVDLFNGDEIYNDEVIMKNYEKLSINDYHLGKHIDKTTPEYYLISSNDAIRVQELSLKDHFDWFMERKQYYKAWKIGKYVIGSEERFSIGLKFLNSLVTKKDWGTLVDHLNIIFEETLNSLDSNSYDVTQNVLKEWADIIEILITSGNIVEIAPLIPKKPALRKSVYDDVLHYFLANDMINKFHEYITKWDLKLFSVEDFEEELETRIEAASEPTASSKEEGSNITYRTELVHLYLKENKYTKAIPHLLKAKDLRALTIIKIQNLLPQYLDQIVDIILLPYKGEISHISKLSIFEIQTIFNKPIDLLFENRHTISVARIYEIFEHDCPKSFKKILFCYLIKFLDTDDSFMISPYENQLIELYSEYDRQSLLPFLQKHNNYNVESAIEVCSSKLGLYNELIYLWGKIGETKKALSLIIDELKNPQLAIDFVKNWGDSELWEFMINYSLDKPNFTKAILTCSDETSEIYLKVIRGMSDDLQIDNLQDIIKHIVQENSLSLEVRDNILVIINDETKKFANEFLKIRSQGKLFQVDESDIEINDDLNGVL
The assay is described as follows: SEC; six HOPS subunits co-translated in 30 ml LTE; Ni-NTA HiTrap (eluted with 250 mM imidazole), then Superdex G200 10/300GL in 50 mM Tris-HCl pH 8, 200 mM NaCl, 1 mM TCEP; fractions with GFP fluorescence on SDS-PAGE (Coomassie). To be noted: remark: other sources report otherwise.

No constants are given. Whether binding was seen depends on the method and setting. For some of these results: Binding seen in cells or lysates may run through a third protein. Some binding calls cover weakened binding; strength is not graded here. For some of these results: Sequences can lack the tags named with a protein.

Consider “Vps11(737-1029) (from UniProt P12868 737-1029) (domain or fragment)”, for which the binding entry in the assay with Vps18 (S. cerevisiae), with Vps3 (S. cerevisiae) and with Vps39 (S. cerevisiae) was “binds” in each case.

B1: Vps39, Q07468 1-1049 (protein)
chain: MLRAQKLHSLKSSDITAILPTEQSQKLVLAKKNGDVEVYSRDGNTLKLFQVYPDLLQNAKNDPLPPVIENFYFANELSTIFAQCKETLILLSTTNLHEYDRIIDRRGINHCWLFERSHKNKEEKNTYLIYSTINTAKMRVLIWEGRTYKNMMEASLSYRKETIRSIYPGETGITLATDLGIYHWPYNKPSLIRIEKTVKNKFPKDMISALTELKEQAEKVIEKKPKKNSHFDAQSFSSMDRMSRKSSMSSLWYRTIRNERGNKIRYTFELDGNDATPMIIDGATKKIFKVELMHNNEEPFLIATDHATFSESNSEFDHMQYLSSNLLMLYNSSTIKFVDYENGFTFLQQKIPEGIKWVKNLSGTYFLVWTSNDEVQLFSYHVDDGSEDDDQESICGDINDPDFYQLWRKVLFYKFFIDSPHSKELCVSDNPEESLDICAMKLRDLTVMWCLRIFDKFQNYMVQLERSRNSRMIRSKCEEMIIKSIFDLFIKFWAPPQLVILKVFPSAISSLVLEITGQEHHCLLKEAEEVKETYDIPPHLLNRWCLPYLTDTRRHLQNLLSKENDDESRITWCYRDREIKQSFDFFLISNHDDVDLNTMLTLIDTVLFKCYLYYNPPMVGPFIRVENHCDSHVIVTELKIRHMFKDLIDFYYKRGNHEEALKFLTDLVDELENDNTDQKQRQKIDHGVKILVIYYLKKLSNPQLDVIFTYTDWLLNRHNDSIKEILSSIFFYDSQACSSRDHLKVYGYIKKFDKLLAIQYLEFAISTFRLEGNKLHTVLIKLYLENLDIPSTRIKLKSLLETTSVYEPRTILKLLNDAIESGSDQLPTNQLNFVKYLKIFPLSKLENHKEAVHILLDEIDDYKAATSYCNDVYQSDSTKGEELLLYLYSKLVSIYDSNRNSKLILNFLQDHGSKLNSAEIYKNLPQDISLYDIGRVVSQLLKKHTSKMDETRLEKALLQVELVATTYKLNERMSSYGVLSDSHKCPICKKVISNFGTDSISWFTREGRNIITHYNCGKVLQERFNAKNEKSSRIKQKTLGEVINELNNK
modifications: here or on the partner: BODIPY-labelled lysines (BODIPY-Lys-tRNA in the translation)
Take B1: the binding entry in assay [1] is given as “binds”.
